Laboratory results as given in PubChem BioAssay AID493208 (National Center for Advancing Translational Sciences (NCATS), 2011).
Among all 44,000 compounds or so, about 340 (0.77%) were called active. Roughly 5% stayed inconclusive and do not appear here. The call rests on the fitted dose curve; in most records, active means well fitted inhibition curve with a large enough effect; inconclusive means small, poorly fitted or top-dose-only effect; inactive means flat fitted curve, though single readings scatter. The list shows a part of the results.

test: Acumen qHTS Assay for Inhibitors of the mTORC1 Signaling Pathway in MEF (Tsc2-/-, p53-/-) Cells: Sytravon; conditions: phospho-rpS6 immunofluorescence/PI, 24 h; series mostly up to 38.3 µM; activity change, negative = inhibition: at the top concentration;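 further: plate controls were DMSO for no effect and rapamycin for full effect; nearly all actives have a fitted effect of over 50% in size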
Outline: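 Tsc2-/-, p53-/- MEFs (empty-vector stable line) in DMEM + 10% FBS were treated with compounds 24 h at 37 degree Celsius, fixed, and immunostained for phospho-rpS6 (Alexa-488) with propidium iodide counterstain. Laser-scanning cytometry gave % positive cells, normalized against 7.5 nM rapamycin and DMSO.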

Activity change, negative = inhibition, inactive:
Cc1ccc(NC(=O)C2CCCN(S(=O)(=O)c3cccc4cccnc34)C2)cc1 (stereo unspecified) -12.2%
Cc1ccc(Cl)cc1NC(=O)c1oc2ccc(S(=O)(=O)N3CCCCC3)cc2c1C -9.7%
CCOC(=O)c1ccc(NC(=O)CSc2cc(=O)n(CC)c3ccccc23)cc1 0.333%
Cc1ccc(Cl)cc1NC(=O)c1oc2ccc(S(=O)(=O)N(C)C3CCCCC3)cc2c1C 11.7%
Cc1ccc(S(=O)(=O)c2cn(Cc3cccc(C)c3)c3cc4c(cc3c2=O)OCO4)cc1 -19.4%
CC(=O)CSc1nnc2cc(C)c3cc(C)cc(C)c3n12 -1.78%
Cc1nn(C(C)C(=O)N2CCN(c3ccc(Cl)cc3)CC2)c(=O)c2cc3occc3n12 (stereo unspecified) -6.38%
Cc1ccc2c(c1)c(=O)c(C(=O)c1ccc3c(c1)OCO3)cn2Cc1ccc(Cl)cc1 0.685%
CCOc1ccc(CN(C(=O)c2cc(=O)c3cc(C)cc(C)c3o2)C2CCS(=O)(=O)C2)cc1 (stereo unspecified) 4.51%
COc1cc(NC(=O)CCc2c(C)nc3cc(-c4ccccc4)nn3c2C)cc(OC)c1OC -8.04%
CCC(CC)C(=O)Nc1nnc(SCc2cc(=O)n3cccc(C)c3n2)s1 1.11%
CCCN1C(=O)C2(c3ccccc31)c1c(oc3ccc(F)cc3c1=O)C(=O)N2CCCOC(C)C (stereo unspecified) -1.56%
c1coc(-c2nc3n(n2)C2(CCCCC2)[C@@H]2CCCC[C@@H]2N3)c1 -4.21%
CN(C(=O)CSc1nnc(-c2ccccc2F)o1)C1CCCCC1 -1.92%
CCN(C(=O)CSc1nc(-c2ccc(C(C)C)cc2)no1)c1cccc(C)c1 -0.783%
Cc1cccc(C(=O)Nc2nnc(S(=O)(=O)N(C)c3ccccc3C)s2)c1 -3.32%
Cc1ccc(-n2c(-c3ccco3)nc3c(cnn3-c3ccccc3Cl)c2=O)cc1 -16.4%
COc1ccc(OC)c(NS(=O)(=O)c2ccc(-c3cc(C)no3)s2)c1 -17%
COc1ccc(CNC(=O)CCCn2nc(C)c3c(C)n(-c4ccccc4)nc3c2=O)cc1 -7.91%
COc1ccc(CCNS(=O)(=O)c2cc(-c3cc(C)no3)ccc2C)cc1OC -5.38%
O=C(Nc1cccc(F)c1)C1CCN(S(=O)(=O)c2cccc3nsnc23)CC1 -8.11%
CCn1cc2nc(SCc3cccc(Cl)c3)n(Cc3ccc(C)cc3)c(=O)c2n1 3.81%
CC(C)c1cnc2c(c1SCC(=O)Nc1cccc(F)c1)c(=O)n(C)c(=O)n2C 10%
Cc1ccc(Cl)cc1Nc1nn2c(=O)c3ccc(C(=O)N4CCCC(C)C4)cc3nc2s1 (stereo unspecified) -0.349%
CN(C)c1ccc(CNC(=O)CCn2cccn2)cc1 -11.9%
CCc1ccc(CN2CCc3nc(N4CCN(CC)CC4)ncc3C2)cc1 0%
c1ccc(CSc2nc3ncccc3[nH]2)cc1 1.21%
O=C(Nc1cccc(C(F)(F)F)c1)C1CCCN1S(=O)(=O)c1cccc2nsnc12 (stereo unspecified) -5.59%
Cc1cc(C)cc(OC(C)C(=O)Nc2c(C(=O)c3ccccc3)oc3ccccc23)c1 (stereo unspecified) 3.17%
CSc1ccc(C2c3c(oc4cc(C)cc(C)c4c3=O)C(=O)N2Cc2ccco2)cc1 (stereo unspecified) -1.07%
CCCN(CCC)S(=O)(=O)c1ccc(C(=O)Nc2sc3c(c2C(=O)OC)CCN(CC)C3)cc1 -27%
Cc1ccc(S(=O)(=O)N2CCC(C(=O)Nc3ccc(C)c(Cl)c3)CC2)cc1 -8.27%
CCOC(=O)c1c(C)[nH]c(C)c1S(=O)(=O)N1CCN(c2cccc(C(F)(F)F)c2)CC1 -2.6%
CCN(CC)C(=O)Cn1c(=O)n(-c2ccc(Cl)cc2)c(=O)c2c3c(sc21)CCC3 -10.5%
COc1ccc(CCNC(=O)C(=O)NCC(c2cccs2)S(=O)(=O)c2ccc(C)cc2)cc1 (stereo unspecified) -9.18%
O=C1c2[nH]nc(-c3ccccc3O)c2C(c2cccc(OCc3ccccc3)c2)N1CCO (stereo unspecified) 1.93%
COc1ccc(C(=O)COC(=O)C(Cc2c[nH]c3ccccc23)NC(=O)c2ccc(C(C)(C)C)cc2)cc1 (stereo unspecified) -6.1%
COc1ccc(-n2nc(C)c3c(C(F)(F)F)cc(-c4cccnc4)nc32)cc1 -8.57%
Cc1cn2c(=O)cc(COC(=O)c3cccc(NC(=O)c4ccccc4C)c3)nc2s1 4.06%
CCOC(=O)c1cc(OC(=O)c2ccccc2C)n(-c2ccccc2)n1 -1.42%
COc1cccc(N2CCN(C(=O)CCS(=O)(=O)c3ccc4c(c3)oc(=O)n4C)CC2)c1 -7.07%
COCCCNC(=O)C1CCN(c2nc3ccc(C)cc3[nH]2)CC1 -0.217%
COc1cc(OC)cc(-c2cc3nc(C)c(CCC(=O)NCc4ccc(Cl)cc4)c(C)n3n2)c1 -3.49%
Cc1cccc(N2CCN(C(=O)Cn3ncc4c5ccccc5n(C)c4c3=O)CC2)c1C -11.1%
COc1ccc(C(=O)Nc2ccc(-n3nncc3-c3ccccc3)cc2)cc1OC -9.09%
Cc1cc2oc(=O)cc(C)c2c2occ(-c3ccc(Cl)cc3)c12 4.4%
Cc1ccc2[nH]c3c(=O)n(CC(=O)N4CCCCC4)ncc3c2c1 5.72%
Cc1ccc(C)n1-c1nnc(N2CCCC(C(=O)NCc3cccc(F)c3)C2)s1 (stereo unspecified) -9.62%
COc1ccc(OC)c(CNC(=O)C2CCN(c3nc4ccccc4nc3C(F)(F)F)CC2)c1 3.17%
CCc1ccc(S(=O)(=O)c2cn(Cc3ccccc3)c3cc(F)c(F)cc3c2=O)cc1 9.48%
CCc1ccccc1Nc1nc2ccccc2c2nncn12 -4.97%
Cc1ccc(-n2nc(CO)c(C(=O)NCc3cccnc3)n2)cc1 3.16%
Cc1ccc(OCC(=O)Nc2ccc3nc(SCC(=O)N4CCOCC4)sc3c2)cc1 -9.31%
COc1ccccc1NC(=O)CSc1ncc2c(n1)-c1cc(Cl)ccc1N(Cc1ccccc1)S2(=O)=O -3.45%
CCCCc1c(C)nc2c(-c3ccc(OC)cc3)c(C)[nH]n2c1=O -5.37%
Cn1c(CN2CCCCC2)nc2cc(NC(=O)c3ccccc3Cl)ccc21 -27.6%
CCCCNC(=O)CCCn1c(=O)c2ccccc2n(Cc2cccc(Cl)c2)c1=O -1.71%
CCC(=O)N1CCc2cc(Br)cc(S(=O)(=O)CCC(=O)N3CCN(c4ccccc4F)CC3)c21 3.21%
O=C(NC1CCCC1)c1cc(Nc2cccc(C(F)(F)F)c2)nc2ccccc12 -10.1%
O=C(C1CCN(S(=O)(=O)Cc2ccccc2)CC1)N1CCN(c2ccccc2)CC1 2.89%
Cc1nc2c(c(C)c1CCC(=O)NCc1ccccc1)c(=O)n(C)c(=O)n2C -0.679%
